This is an account of results in ChEMBL document CHEMBL1201862, “PubChem BioAssay data set” (2004).

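Cells were grown in 96-well plates and exposed to each compound for 48 hours at five concentrations; endpoints were interpolated linearly between bracketing concentrations, or set to the highest concentration if not reached. GI50 = concentration required for 50% inhibition of growth.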 Active and inactive are the calls of the source. No stated cut-off is given here; in the data, active = GI50 up to about 1.1 µM and inactive = higher.

This experiment deals with NCI-H322M. Put plainly: growth of human tumour cells (NCI), 48 h.
As to `COc1ccc2c(c1)CCCC(Br)C2=O` (configuration not stated), the GI50 is inactive: 16.6 µM.

For `CCCS(=O)(=O)O`, the GI50 was inactive: > 100 µM.

For the molecule `COc1cc([C@@H]2c3cc4c(cc3C[C@@H]3COC(=O)C32)OCO4)cc(OC)c1O` (some centres not stated), the GI50 is active: 0.064 µM.

For `CC1OC(OC2C(O)COC(OC3C(C)OC(OC4C(OC(=O)[C@]56CCC(C)(C)C[C@@H]5C5=CCC7[C@@]8(C)C[C@H](O)[C@H](OC9OC(CO)C(O)C(OC%10OC(CO)C(O)C(O)C%10O)C9O)[C@@](C)(CO)[C@@H]8CC[C@@]7(C)[C@]5(C)CC6)OCC(O)C4O)C(O)C3O)C2O)C(O)C(O)C1O` (some centres not stated), the GI50 was inactive: 16.4 µM.

As to `Clc1ccccc1/C=C\C1(c2ccccc2)OCCO1`, the GI50 was inactive: 28.8 µM.

On to `CC1(C)CC2=C(Sc3ccccc3N2)C(=O)C1C(=O)C(=O)Nc1cc(Cl)ccc1Cl` (configuration not stated), for which the GI50 was inactive: > 100 µM.

Regarding `CC1(C)OC(COP2OCCO2)[C@H](COP2OCCO2)O1` (some centres not stated), the GI50 was inactive: > 100 µM.

As for `Cc1cc(N(CCC#N)CCC#N)ccc1/C=C1N=C(/C=C\c2ccccc2)N(c2ccc(Cl)cc2)C\1=O`, the GI50 is inactive: > 72.1 µM.

With `N#Cc1nc(-c2cccnc2)oc1N`, the GI50 is inactive: > 100 µM.

For `Cc1c(C(=O)C/C(=N/NC(=O)C[n+]2ccccc2)C(=O)Nc2ccccc2)[n+]([O-])c2ccccc2[n+]1[O-]`, the GI50 is inactive: > 100 µM.

`CC1=NN(c2ccccc2)C(=O)C1/N=N/c1ccc(Br)cc1C` (configuration not stated): the GI50 is inactive: > 100 µM.

Consider `CCCCCCCCCCCCCCCC(=O)OC1C(O)C(O)C(O)C(O)C12CO2` (configuration not stated), for which the GI50 is inactive: > 100 µM.

With `c1ccc(C2=NN3CN(N2)c2ccccc2OCCCOc2ccccc23)cc1`, the GI50 is inactive: > 100 µM.

As for `CN1c2c(O)nc(N)nc2NCC1CCNc1ccc(C(=O)NC(CCC(=O)O)C(=O)O)cc1` (configuration not stated), the GI50 was inactive: 1580 µM.

As for `COc1ccc(-c2cc(-c3cc(F)c(Cl)cc3Cl)on2)cc1OC`, the GI50 is inactive: > 100 µM.

Regarding `c1csc(-c2cc(-c3cccs3)c(-c3cccs3)s2)c1`, the GI50 was inactive: > 100 µM.

For the molecule `CC(=O)Nc1ccc(CNc2cc(=O)[nH]c(=O)[nH]2)cc1`, the GI50 was inactive: > 100 µM.

Consider `CCOC(=O)c1c(N2CCOCC2)ncn(-c2cccc(Cl)c2)c1=O`, for which the GI50 was inactive: > 100 µM.

Consider `Cc1nc(C)c(N2CCN(S(N)(=O)=O)CC2)c(O)n1`, for which the GI50 was inactive: > 100 µM.

In the case of `Cc1ccc(-c2cc(-c3ccccc3)nc(N)n2)c(O)c1`, the GI50 was inactive: > 100 µM.

Take `O=C(/C=C/c1ccc(O)cc1)c1cc(O)cc(O)c1`: the GI50 was inactive: 16.4 µM.

As for `COc1ccc(Nc2nc3cc(C(F)(F)F)ccc3nc2-c2ccccc2)cc1OC`, the GI50 was inactive: 58.7 µM.

As to `CCO/C=C1\N=C(c2ccc(Cl)c(Cl)c2)OC1=O`, the GI50 was inactive: 64.4 µM.

Regarding `CC(C)(C)c1cc(-c2cc(C(C)(C)C)[nH]n2)[nH]n1`, the GI50 was inactive: > 100 µM.

For the molecule `O=C(CO)CC(=O)C(=O)Nc1nc([N+](=O)[O-])cs1`, the GI50 is inactive: > 100 µM.

Consider `Cc1c(NC(=O)CSC(=S)N2CCN(Cc3ccccc3)CC2)c(=O)n(-c2ccccc2)n1C`, for which the GI50 was inactive: > 100 µM.

Take `Nc1ncnc2c1N=CN(Oc1ccccc1)N2`: the GI50 is inactive: > 100 µM.

On to `CCOC(=O)C(=O)Nc1ccc(Cl)cc1C`, for which the GI50 is inactive: > 100 µM.

Take `Cc1cc2c(cc1C)[n+]([O-])c(C(=O)CC(=O)C(=O)Nc1ccccc1C(C)C)c(C)[n+]2[O-]`: the GI50 was inactive: > 100 µM.

For the molecule `CC(=O)NNc1nc(C)c(C(/C=C/c2ccc(/C=C/C(=N\NC(=O)c3ccncc3)c3sc(NNC(C)=O)nc3C)cc2)=N/NC(=O)c2ccncc2)s1`, the GI50 was inactive: > 100 µM.

As for `C/C(=N\NC(=S)Nc1ccc([N+](=O)[O-])cc1)c1nc2cccnc2[nH]1`, the GI50 is active: 0.605 µM.

As for `COc1cc([C@H]2c3cc(O)c(OC)cc3C[C@]3(O)[C@@H]2CO[C@@H]3O)ccc1O`, the GI50 was inactive: > 100 µM.

As for `COc1ccc(CCN2CCN(CCc3ccc(OC)cc3)CC2)cc1`, the GI50 was inactive: > 100 µM.

For `N#Cc1c(N)oc(-c2ccc([N+](=O)[O-])cc2)c1C#N`, the GI50 is inactive: 24.7 µM.

On to `CCOC(=O)C1=C(C)N(c2ccccc2)C2=C(C(=O)N(c3ccccc3)C2c2ccccc2)C1c1ccccc1` (configuration not stated), for which the GI50 was inactive: > 100 µM.

As to `CN(C)Cc1cc(/N=N/c2ccc(Cl)c(Cl)c2)ccc1O`, the GI50 was inactive: 11.7 µM.

Turning to `O=C1CC(NCc2ccccc2)c2c(Cl)sc(Cl)c21` (configuration not stated), the GI50 was inactive: 52.4 µM.

Consider `CC(C)OC(=O)NCCn1cc(-c2ccccc2)nn1`, for which the GI50 was inactive: > 100 µM.

As for `Cc1ccc(NC(=O)C(=O)C(C(=O)c2ccc3ccccc3c2)C2OC(=O)c3ccccc32)cc1C` (configuration not stated), the GI50 is inactive: 11.4 µM.

As for `COc1cccc([C@@H]2C/C(=N\NC(=O)C(=O)N[C@@H](C)c3ccccc3)c3cc4c(cc3N2)OCO4)c1`, the GI50 is inactive: 58.6 µM.

With `Cn1c(=O)c2[nH]c(-n3nc(-c4ccccc4)cc3N)nc2n(C)c1=O`, the GI50 was inactive: 4.93 µM.

On to `CC1=C(C#N)C2C(=C(N)Oc3ccccc32)C(N)=N1` (configuration not stated), for which the GI50 was inactive: 19 µM.

As for `CN1Cc2ccccc2/C=C\c2ccccc21`, the GI50 is inactive: > 100 µM.

For `CCCC(O)c1ccc2[nH]c3c(C)cc([N+](=O)[O-])c(C)c3c2c1` (configuration not stated), the GI50 was inactive: > 100 µM.

Turning to `CC(=O)Nc1ccc2c3c(cc(O)c2c1)N(C(=O)CCCCCCC(=O)N1CC(CCl)c2c1cc(O)c1cc(NC(C)=O)ccc21)CC3CCl` (configuration not stated), the GI50 is active: 0.0396 µM.

In the case of `CCCCN(CC)C(=O)C(=O)C1C(=O)Nc2ccccc2[S+]1[O-]` (configuration not stated), the GI50 is inactive: > 100 µM.

Consider `CCOC(=O)C1=CN(C(=O)c2ccccc2)CCC1Cc1ccccc1` (configuration not stated), for which the GI50 was inactive: 43 µM.

For the molecule `COc1c(Cl)cc(NC(=S)C#N)cc1Cl`, the GI50 was inactive: 24 µM.

`C[C@H](CCC(=O)NCCS(=O)(=O)O)[C@H]1CC[C@H]2[C@@H]3[C@H](O)C[C@@H]4C[C@H](O)CC[C@]4(C)[C@H]3CC[C@]12C`: the GI50 was inactive: > 100 µM.

Consider `COc1cc([C@H]2c3cc4c(cc3O[C@@]3(O)COC(=O)[C@@H]23)OCO4)cc(OC)c1OC`, for which the GI50 was inactive: > 100 µM.

Turning to `O=C(/C=C/c1ccc(O)c(O)c1)OC1C[C@@](O)(C(=O)O)C[C@@H](O)[C@H]1OC(=O)/C=C/c1ccc(O)c(O)c1` (some centres not stated), the GI50 is inactive: > 100 µM.

As to `COC1=C(C)C(=O)C2C(C1=O)C(c1ccc(OC)c(OC)c1)[C@H]2C` (some centres not stated), the GI50 was inactive: > 100 µM.

`COc1cc(O)c2c(=O)cc(C3(O)C=CC(=O)C=C3)oc2c1`: the GI50 was inactive: 2.07 µM.

As to `Cc1nn2c(N)cc(=O)nc2nc1/C=C/c1ccc(N(C)C)cc1`, the GI50 is inactive: > 48 µM.

Regarding `O=C(/C=C/c1ccc(/C=C/C(=O)c2ccc(O)cc2)cc1)c1ccc(O)cc1`, the GI50 is inactive: > 100 µM.

On to `NS(=O)(=O)c1ccc(/N=N/c2nc3nc(O)nc(O)c3[nH]2)cc1`, for which the GI50 is inactive: > 100 µM.

For `CN(C)CCOC(=O)c1ccc(N)cc1`, the GI50 is inactive: > 100 µM.
